Data from ChEMBL document CHEMBL4888484, “Replenishing the malaria drug discovery pipeline: Screening and hit evaluation of the MMV Hit Generation Library 1 (HGL1) against asexual blood stage Plasmodium falciparum ,using a nano luciferase reporter read-out” (2022).
“And” between values parts separate entries of the source, which are not always exact repeats. Equal values may be shown once. Out of some 150,000 compounds screened, about 540 (0.36%) showed an effect of 50% or more. The list shows a part of the results.

System: Plasmodium falciparum
Test: Primary screen in NF54 nanoGlo assay, in single point, at 2uM, 72h; a lower Z score goes with more inhibition
Type: functional, Erythrocyte
Conditions: timepoint 72 hour

SMILES | % Inhibition [%] | Z score | % Inhibition (2 µM)
c1cnc(-c2nc(CN3CCOC4CCCCC43)cs2)nc1 (configuration not stated) | -16 | 2.97 | –
O=C(C1CCOCC1)N1C[C@H](c2ccc3c(c2)OCO3)[C@@H]2[C@H]1C1CCN2CC1 | -10 | 0.98 | –
CCCc1c(C(=O)NCCN2CCOCC2)c(=O)cc(C)n1Cc1ccc2c(c1)OCO2 | 6 | -0.71 | –
Cc1ccccc1Cc1c(C(=O)NCc2ccon2)c(=O)cc(C)n1Cc1ccccn1 | -3 | 0.4 | –
Cc1ccc(C)c(C(=O)[C@@H](N)CC(C)C)c1 | -5 | 0.68 | –
Cc1cccc(OCC(=O)N2CCN(Cc3ncnn3C(C)(C)C)CC2)c1C | -33 | 3.89 | –
C1CCC(NC2CCC3(CC2)OCCO3)CC1 | -6 | 0.86 | –
O=C(c1ccccn1)N1C[C@H]2CC[C@@H](C1)N(CC1CCCCC1)C2 | -7 | 1.22 | –
Cc1[nH]c2ccccc2c1CC1C(=O)N(C)C(=O)N(C)C1=O | 9 | -1.32 | –
Cc1ccc([C@H]2CN(S(=O)(=O)C3CC3)[C@@H]3C4CCN(CC4)[C@H]23)cc1 | -2 | 0.32 | –
CCC1(CC)O[C@@H](c2cccnc2)Nc2ccccc21 | -5 | 0.65 | –
Cn1c(O)c(Cc2ccc(OCc3ccccc3)cc2)c(=O)n(C)c1=O | – | – | -10% and 6%
OC[C@]12COCCN1CCN(c1nccc(C(F)(F)F)n1)C2 | -1 | 0.27 | –
Cc1ncsc1CN1C[C@@H]2CC[C@H]1CN(Cc1c(C)noc1C)C2 | -5 | 0.89 | –
O=C(NCc1nccs1)N1C2CCC1C(CO)C2 (configuration not stated) | -8 | 0.75 | –
CC(C)(CN)c1c(Cl)cccc1Cl | -5 | 0.84 | –
CCN1CCN(C(=O)c2cccc3[nH]c(=O)oc23)[C@@H](C)C1 | -12 | 1.57 | –
CCc1nc(CNC(=O)c2ccc3c(c2)CCNCC3)cs1 | -1 | 0.25 | –
O[C@@]1(c2ccccc2)CCN[C@H]2CCCC[C@@H]21 | -21 | 2.65 | –
CN1CC[C@@H](c2ccc(F)cc2)[C@H](CO)C1 | 0 | 0.03 | –
CCn1nc(C)c(Br)c1C(=O)N1CCN(CCOC(c2ccccc2)c2ccccc2)CC1 | 1 | -0.12 | –
O=C(Cc1ccc(F)cc1F)N1CCN(CCO)[C@@H]2CS(=O)(=O)C[C@@H]21 | -23 | 2.48 | –
Cc1ccc(S(=O)(=O)NCC#CCN2CCCC2)s1 | -6 | 1.09 | –
C[C@H]1CN(c2ncnc3[nH]ccc23)CCN1 | -1 | 0.21 | –
